The values that follow come from publication PMC4336329 (PLoS ONE, 2015).

The campaign covered roughly 310,000 compounds. About 14,000 (4.5%) showed an effect of 50% or more. Effects have a minus sign here. Some of the results follow.
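Note: peak tail current of the secondary pulse compared with the same well before compound.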

The target of this assay is human ether-à-go-go-related gene (hERG) potassium channel (human, UniProt Q12809). In words: primary screen, population patch clamp on CHO cells stably expressing hERG.
Sequence of human ether-à-go-go-related gene (hERG) potassium channel (Q12809 whole entry, looked up): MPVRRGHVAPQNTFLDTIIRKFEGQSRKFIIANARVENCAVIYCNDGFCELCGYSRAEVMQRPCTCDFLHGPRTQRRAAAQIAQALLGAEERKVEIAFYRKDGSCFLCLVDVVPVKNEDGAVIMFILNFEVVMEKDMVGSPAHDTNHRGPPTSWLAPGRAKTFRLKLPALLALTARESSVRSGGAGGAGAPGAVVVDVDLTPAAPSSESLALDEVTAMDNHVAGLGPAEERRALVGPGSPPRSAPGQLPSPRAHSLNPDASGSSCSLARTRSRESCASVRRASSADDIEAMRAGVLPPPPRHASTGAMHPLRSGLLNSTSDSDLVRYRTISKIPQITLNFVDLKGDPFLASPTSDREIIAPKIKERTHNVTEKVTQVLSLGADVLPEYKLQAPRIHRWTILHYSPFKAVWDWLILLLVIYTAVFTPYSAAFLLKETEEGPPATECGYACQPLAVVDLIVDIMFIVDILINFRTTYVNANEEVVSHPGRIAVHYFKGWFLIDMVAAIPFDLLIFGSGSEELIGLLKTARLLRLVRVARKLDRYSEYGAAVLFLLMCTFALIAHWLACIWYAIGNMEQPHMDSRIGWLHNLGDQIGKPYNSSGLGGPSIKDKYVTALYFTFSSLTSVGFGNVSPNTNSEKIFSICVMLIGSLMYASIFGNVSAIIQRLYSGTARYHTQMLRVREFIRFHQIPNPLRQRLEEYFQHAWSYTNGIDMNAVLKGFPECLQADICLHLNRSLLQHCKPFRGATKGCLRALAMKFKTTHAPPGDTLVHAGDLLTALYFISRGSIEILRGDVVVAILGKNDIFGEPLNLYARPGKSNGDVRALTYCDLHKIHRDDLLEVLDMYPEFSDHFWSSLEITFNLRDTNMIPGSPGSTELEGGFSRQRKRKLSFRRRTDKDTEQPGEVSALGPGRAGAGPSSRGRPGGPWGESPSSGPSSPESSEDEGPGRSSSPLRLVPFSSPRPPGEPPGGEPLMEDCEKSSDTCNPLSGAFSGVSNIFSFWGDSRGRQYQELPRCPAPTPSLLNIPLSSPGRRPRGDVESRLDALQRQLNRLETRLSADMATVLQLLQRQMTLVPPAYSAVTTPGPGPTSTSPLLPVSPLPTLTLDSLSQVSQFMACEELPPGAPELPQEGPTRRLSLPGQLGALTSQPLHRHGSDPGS
For the molecule `O=C(c1cc(F)ccc1F)N1CCC(N2CCC(C(=O)N3CCCC3)CC2)CC1`, the “hERG current change (%, negative = inhibition) at 10uM” value was 6.92%.

On to `CCC(CC)C(=O)Nc1nnc(SCC(=O)NC2CC2)s1`, for which the “hERG current change (%, negative = inhibition) at 10uM” value stood at 15.1%. For `CN(C)Cc1c(O)ccc2c1O/C(=C\C=C\c1ccccc1)C2=O`, the “hERG current change (%, negative = inhibition) at 10uM” value is -15.4%. On to `CC(Cc1ccccc1)NC(=O)c1cc2ccccc2o1` (stereo not drawn), for which the “hERG current change (%, negative = inhibition) at 10uM” value is recorded as 12.6%.

As to `O=C(N/N=C/c1cccc(O)c1)NC1CCCCC1`, the “hERG current change (%, negative = inhibition) at 10uM” value is -14.7%.

Take `Cc1cc(C)n(-c2nc(N(C)C)nc(N(C)C)n2)n1`: the “hERG current change (%, negative = inhibition) at 10uM” value was found to be 14.2%.

For `Cc1cc(Br)c(NC(=O)CCl)c(Br)c1`, the “hERG current change (%, negative = inhibition) at 10uM” value is on record as -6.04%. Under `Cc1c(NC(=O)Nc2cccc(Cl)c2Cl)c(=O)n(-c2ccccc2)n1C` stands -2.84%; under `NS(=O)(=O)c1ccc(CCNC(=O)CCc2ccccc2)cc1`, 1.22%. For the molecule `COC(=O)CC1C(=O)NCCN1C(=S)Nc1cccc(C)c1` (stereo not drawn), the “hERG current change (%, negative = inhibition) at 10uM” value came to 4.74%. Under `CCOC(=O)c1sc(NC(=O)C2CC2)cc1C` stands 9.19%; under `CC1=C(C(=O)N2CCOCC2)C(c2ccc(-c3ccccc3)cc2)NC(=S)N1` (stereo not drawn), 14%. Under `CC(C)N(C)Cc1nnnn1CC(=O)NCCc1cccc(C(F)(F)F)c1` stands 4.67%; under `O=C(O)C1(c2ccccc2)CCN(S(=O)(=O)c2ccc(F)c(F)c2)CC1`, 2.44%. Turning to `COc1ccc(CC(=O)Nc2ccc(C(N)=O)cc2)cc1`, the “hERG current change (%, negative = inhibition) at 10uM” value was 5.52%. With `O=S(=O)(c1ccc(-c2ccccn2)s1)N1CCC2(CC1)OCCO2`, the “hERG current change (%, negative = inhibition) at 10uM” value is listed as 11%. In the case of `CCOc1ccc(CCNC(=O)c2cc3sccc3n2CC)cc1OCC` it was -3.91%; in that of `O=S(=O)(Nc1ncccn1)c1ccc(NS(=O)(=O)c2cccc(Cl)c2Cl)cc1`, 49.7%.

As to `Cc1ccc(NC(=O)C2CCN(S(=O)(=O)c3ccc4c(c3)NC(=O)C(C)S4)CC2)c(Cl)c1` (stereo not drawn), the “hERG current change (%, negative = inhibition) at 10uM” value is reported as 10.3%. Consider `Cc1nc(NC(=O)/C=C/c2ccc(Cl)cc2Cl)sc1C(=O)N(C)C`, for which the “hERG current change (%, negative = inhibition) at 10uM” value is recorded as 15.4%. For `CN(C)CCNC(=O)c1c(CSc2ccccc2)noc1C(=O)NCc1ccccc1`, the “hERG current change (%, negative = inhibition) at 10uM” value is -37.1%. As for `O=C(COC(=O)CCC(=O)c1ccc2c(c1)OCCO2)NCc1ccc2c(c1)OCO2`, the “hERG current change (%, negative = inhibition) at 10uM” value was found to be 6.22%. Take `O=C(NCc1ccccc1)c1ccccc1Br`: the “hERG current change (%, negative = inhibition) at 10uM” value was -3.91%.

As to `COC(=O)N/N=C/c1ccc(OCCSc2ccc(Cl)cc2)c(OC)c1`, the “hERG current change (%, negative = inhibition) at 10uM” value is -6.11%.

Consider `CN1CCC(NC(=O)NC2CCCCC2)CC1`, for which the “hERG current change (%, negative = inhibition) at 10uM” value turned out to be 11.9%. `CC1(C)Cc2c(cnn2-c2ccccc2)C(NC(=O)CCN2CCCCO2)C1` (stereo not drawn): the “hERG current change (%, negative = inhibition) at 10uM” value is listed as 7.93%. `CC(=O)c1nnn(-c2ccc([N+](=O)[O-])cc2)c1C`: the “hERG current change (%, negative = inhibition) at 10uM” value is 2.06%. For `O=C(CC1SC(=Nc2ccc(OC(F)F)cc2)N(CCC2=CCCCC2)C1=O)Nc1ccccc1F` (stereo not drawn), the “hERG current change (%, negative = inhibition) at 10uM” value was found to be 15.7%. In the case of `N#C/C=C1\n2c(nc3ccccc32)OC12CCCCC2`, the “hERG current change (%, negative = inhibition) at 10uM” value is on record as -32.6%. As for `COc1ccc(OC(C)C(=O)Nc2ccccc2C(F)(F)F)cc1` (stereo not drawn), the “hERG current change (%, negative = inhibition) at 10uM” value is recorded as -14.5%. With `Cc1cccc(C(=O)NCCc2ccc(S(N)(=O)=O)cc2)c1[N+](=O)[O-]`, the “hERG current change (%, negative = inhibition) at 10uM” value is -11.6%. In the case of `Cc1nc(C)c(-c2ccnc(/N=C/NO)n2)s1` it was 6.75%. `CC(OC(=O)C1CCCCC1)c1nc2ccccc2[nH]1` (stereo not drawn): the “hERG current change (%, negative = inhibition) at 10uM” value is listed as -7.93%. In the case of `CC(Oc1ccccc1)C(=O)Nc1nc2c(s1)C(=O)CC(C)(C)C2` (stereo not drawn) it was 11.8%.

As for `CSCCC(=O)N1CCC(n2nccc2NC(=O)c2ccc3c(c2)OCO3)CC1`, the “hERG current change (%, negative = inhibition) at 10uM” value is listed as 4.77%.

As for `Cc1ccc(O)c(/C=N/NC(=O)CN2CCCC2)c1`, the “hERG current change (%, negative = inhibition) at 10uM” value turned out to be 10.8%. As for `CCOC(=O)CSc1nc2cc(C(=O)N3CCC(C(N)=O)CC3)ccc2c(=O)n1-c1ccccc1`, the “hERG current change (%, negative = inhibition) at 10uM” value was -16.2%.

Take `CN1CCN(Cc2nc(N)nc(Nc3ccc4c(c3)OCCO4)n2)CC1`: the “hERG current change (%, negative = inhibition) at 10uM” value is recorded as -26.1%. Under `Cn1c(C(=O)O)cc2c(=O)n3ccccc3nc21` stands 21%; under `Cn1nc(C(=O)NCc2ccccc2Cl)c2c1-c1ccccc1S(=O)(=O)C2`, -14.4%; under `CN(C)C(=O)c1c(NC(=O)c2ccccc2)sc2c1CCC2`, 11%.

Take `CCc1ccccc1NC(=O)CSc1nnc([C@@H]2CCCN2C(=O)OC(C)(C)C)o1`: the “hERG current change (%, negative = inhibition) at 10uM” value was -1.99%. In the case of `COc1ccccc1-c1coc2c(CN3CCN(CCO)CC3)c(O)ccc2c1=O` it was 17.7%. In the case of `Cc1ccc(NS(=O)(=O)c2ccc(C(=O)N3CCN(S(=O)(=O)c4ccccc4)CC3)cc2)cc1`, the “hERG current change (%, negative = inhibition) at 10uM” value is reported as -6.03%. Take `COc1ccccc1NC(=S)N1CCN(c2cccc(C)c2C)CC1`: the “hERG current change (%, negative = inhibition) at 10uM” value amounted to 1.37%. Take `CCC(Sc1nc(N)cc(=O)[nH]1)C(=O)NC(C(=O)OC)c1ccccc1` (stereo not drawn): the “hERG current change (%, negative = inhibition) at 10uM” value is 0.59%. On to `CC(/C=N/NC(=O)c1nnn(-c2nonc2N)c1CN1CCCCC1)=C\c1ccccc1`, for which the “hERG current change (%, negative = inhibition) at 10uM” value turned out to be 6.51%.

Turning to `O=S(=O)(NCc1ccccc1)c1ccc(S(=O)(=O)N2CCCC2)cc1`, the “hERG current change (%, negative = inhibition) at 10uM” value was -0.882%. For the molecule `Cc1nc(SCC(=O)NC2CCCCC2)[nH]c(=O)c1C`, the “hERG current change (%, negative = inhibition) at 10uM” value was 3.8%. In the case of `CCCOc1ccc(C(=O)Nn2c(C)nc3ccccc3c2=O)cc1` it was -3.72%. With `O=C(CSc1ccc2nnc(-c3ccccn3)n2n1)N1CCN(c2ccccc2)CC1`, the “hERG current change (%, negative = inhibition) at 10uM” value is recorded as -86.7%. For `Cc1ccsc1C(=O)N1CCCC(CCC(=O)NCc2ccccc2F)C1` (stereo not drawn), the “hERG current change (%, negative = inhibition) at 10uM” value is given as -7.46%. As for `CCOC(=O)c1cc(C)n(CCCN2CCOCC2)c1C`, the “hERG current change (%, negative = inhibition) at 10uM” value is on record as 11%. As for `COc1ccc(C2C(C(=O)c3sc(C)nc3C)=C(O)C(=O)N2CCN(C)C)cc1` (stereo not drawn), the “hERG current change (%, negative = inhibition) at 10uM” value was -6.4%. As for `CCC12C(=O)C(CC)(C(c3ccccc3)=C1c1ccccc1)[C@@H]1C(=O)N(c3ccc(C)cc3)C(=O)C12` (stereo partly drawn), the “hERG current change (%, negative = inhibition) at 10uM” value worked out at 14.5%.

Turning to `OCCOCCNc1ncnc2nc[nH]c12`, the “hERG current change (%, negative = inhibition) at 10uM” value was found to be 9.58%. With `C#CC1CCCCC1NC(=O)Nc1cnccc1C(F)(F)F` (stereo not drawn), the “hERG current change (%, negative = inhibition) at 10uM” value is on record as 11.8%.
